Test results taken from PubChem BioAssay (NCATS).
Inconclusive results, whose numbers are uncertain, are shown with a selection of clear calls. For some assays here: Where the call is inconclusive, the potency comes from a doubtful curve fit. Calls of active or inactive are those of the source. Unless noted, the call rests on the fitted dose curve; in most records, active means well fitted curve in the direction sought with a large enough effect; inconclusive means small, poorly fitted or top-dose-only effect, or another doubt; inactive means no such curve, though single readings can be large; an effect the other way counts as inactive or inconclusive.

Experiments:
[1] = system: Zika virus NS2B-NS3 protease; assay: Primary screen GU AMC qHTS for Zika virus inhibitors (AID 1347154); further: nearly all actives have a fitted effect of over 70% in size; further: potency means the concentration at half of the fitted maximal effect;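 on activity change, negative = inhibition: 0% = no-inhibitor control and -100% = no-enzyme control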
Procedure, shortened: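 Fluorogenic AMC-substrate cleavage by noncovalent NS2B-NS3 protease complex (25 nM, pH 8.0 Tris buffer with Tween 20) followed for 15 minutes at room temperature (~20% conversion). Percent inhibition from ex340/em450 signal change, fitted by 4-parameter Hill equation.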

[2] = system: Zika virus NS2B-NS3 protease (linked construct); assay: Confirmatory screen NINDS AMC qHTS for Zika virus inhibitors (AID 1347152); further: potency means the concentration at half of the fitted maximal effect; nearly all actives have a fitted effect of over 70% in size
Procedure, shortened: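 Purified NS2B-NS3 protease with NS2B hydrophilic domain linked to NS3 protease domain by flexible linker, 1 nM final in 10 mM Tris-HCl pH 8.0, 0.01% Tween 20. Compounds preincubated 15 min, room temperature; Bz-Nle-KRR-AMC 10 microM (Km 18.3 µM); 15-min fluorescence change, 4-parameter Hill fit.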

[3] = system: Zika virus NS2B-NS3 protease (unlinked complex); assay: Confirmatory screen GU AMC qHTS for Zika virus inhibitors (AID 1347153);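 further: enzyme at 25 nM with substrate at 10 µM below its Km of 18.3 µM; potency means the concentration at half of the fitted maximal effect; nearly all actives have a fitted effect of over 70% in size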
Procedure, shortened: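 Noncovalent NS2B hydrophilic domain/NS3 protease complex (25 nM) in 10 mM Tris-HCl pH 8.0, 0.01% Tween 20 was preincubated 15 min at room temperature with compounds. Then 10 µM AMC substrate (Km 18.3 µM) was added; fluorescence was read over 15 min and fitted to a 4-parameter Hill equation.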

[4] = Vero cells viability qHTS for Zika virus inhibitors (AID 1347167); further: potency means the concentration at half of the fitted maximal effect
Procedure, shortened: (§1)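 Luminescent ATP readout (CellTiter Glo) after 30 min at 37 degrees C gives viability; cells in DMEM + 4% FBS were treated 24 to 48 hours with compound, following overnight attachment.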

[5] = HepG2 cells viability qHTS for Zika virus inhibitors (AID 1347168); further: potency means the concentration at half of the fitted maximal effect
Procedure, shortened: as §1

[6] = Tertiary RLuc qRT-PCR qHTS assay for Zika virus inhibitors (AID 1347169); further: potency means the concentration at half of the fitted maximal effect; nearly all actives have a fitted effect of over 55% in size
Procedure, shortened: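 Vero cells (1,000 per well) plated overnight at 37 degrees C, treated with compound in DMSO, then infected with recombinant ZIKV-RLuc (Cambodian) at MOI 1-2 for 48-72 hrs. Live-cell Renilla luciferase substrate added; luminescence read after 1-1.5 hrs.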

[7] = ZIKV-mCherry secondary qHTS for Zika virus inhibitors (AID 1347158); conditions: Vero cells, ZIKV-mCherry infection imaging, 48-72 h; activity change, negative = inhibition: at 49.2 µM (top of the series); further: top concentration of the series differs between compounds
Procedure, shortened: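 Read-out is percent infection: mCherry-positive Vero cells (nuclear-proximal intensity >450 RFU, 3 SD above negative controls) counted by high-content imaging of Hoechst-stained, PFA-fixed wells after 48-72 h with ZIKV-mCherry at MOI 1 and compound.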

[8] = system: Zika virus NS2B-NS3 protease (linked); assay: 384 well plate NINDS AMC confirmatory qHTS for Zika virus inhibitors (AID 1347163); further: potency means the concentration at half of the fitted maximal effect; nearly all actives have a fitted effect of over 50% in size
Procedure, shortened: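 Enzyme (5, 30 or 60 nM final) first met test compounds for ~15 min. The AMC-tagged peptide Ac-VKTGKR-AMC followed at 30 microM. Fluorescence was then recorded at 25 min and scaled against no-enzyme and no-inhibitor wells.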

[9] = qHTS Assay for Lipid Storage Modulators (AID 1519; calls by dose curve; further: on the % scale 0 is the no-effect control and ±100 the full control effect); conditions: Drosophila S3 cells, BODIPY lipid droplet/cell ratio, laser cytometry, cells loaded with oleic acid; activity change, negative = inhibition: at 57.5 µM (top of the series) unless noted
Procedure, shortened: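 Cells seeded at 5,000 per well were treated with compounds over a concentration series and loaded with oleic acid (400 uM, as added). Lipid droplet fluorescence (488 nm excitation, 500-530 nm channel) was read by laser-scanning cytometry and normalized to 20 uM Triacsin C.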

[10] = qHTS for differential inhibitors of proliferation of Plasmodium falciparum line GB4 (AID 1816); conditions: Potency: Plasmodium falciparum GB4 proliferation inhibition;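 further: potency means the concentration at half of the fitted maximal effect; parasite growth measured after 72 h incubation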
[11] = qHTS for differential inhibitors of proliferation of Plasmodium falciparum line D10 (AID 1877);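 further: potency means the concentration at half of the fitted maximal effect; parasites grown with compound for 72 h before DNA staining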
[12] = biological target: Ferritin light chain (Equus caballus) (UniProt P02791); assay: qHTS Validation Assay for Identification of Novel General Anesthetics (AID 2323); further: potency means the concentration at half of the fitted maximal effect
Procedure, shortened: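 Competitive displacement of profluorescent 1-aminoanthracene (1-AMA, 50% saturated solution in PBS) from 10 uM horse-spleen apoferritin. Compounds incubated 10 min at room temperature; fluorescence read at 380 nm excitation/535 nm emission, normalized to free 1-AMA and complex, fitted with four-parameter Hill equation.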

[13] = biological target: RecQ-like DNA helicase BLM (Homo sapiens) (UniProt P54132); assay: qHTS Validation Assay for Inhibitors of Bloom's syndrome helicase (BLM) (AID 2364); further: potency means the concentration at half of the fitted maximal effect
Procedure, shortened: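 Forked 20-bp duplex substrate (200 nM, TAMRA/BHQ-2) plus 2 mM ATP added after 15 min compound preincubation with 50 nM enzyme, pH 8.0, poly(dI-dC) 2.5 ug/ml. Strand separation followed by fluorescence (525/598 nm) over 2 h, normalized to enzyme-free and DMSO controls.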

[14] = biological target: ATP-dependent 6-phosphofructokinase (Trypanosoma brucei brucei) (UniProt O15648); assay: qHTS Validation Assay to Find Inhibitors of T. brucei phosphofructokinase (AID 485368)
Procedure, shortened: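 Inhibition derived from concentration-response curves of luminescence, ranked by r2, response size and curve class; the underlying reaction used 1.25 nM PFK, 0.1 mM ATP and 0.5 mM F6P, 45 min, room temperature.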

[15] = Quantitative high throughput screen for delayed death inhibitors of the malarial parasite plastid, 96 hour incubation (AID 488745); further: potency means the concentration at half of the fitted maximal effect; nearly all actives have a fitted effect of over 70% in size
Procedure, shortened: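 Luciferase-expressing P. falciparum, infected RBCs 2% Hct/0.1% parasitemia (final); 96 h cpd exposure, 37 C, 5% CO2; RPMI 1640 + 0.5% Albumax, bicarbonate, gentamycin. Readout: luminescence loss = growth inhibition.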

[16] = Quantitative high throughput screen for delayed death inhibitors of the malarial parasite plastid, 48 hour incubation (AID 488752); further: potency means the concentration at half of the fitted maximal effect; nearly all actives have a fitted effect of over 65% in size
Procedure, shortened: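 Luciferase-expressing P. falciparum in RBCs, 2% Hct, 0.1% parasitemia final; RPMI 1640 + 0.5% Albumax; 48 h, 37 C, 5% CO2; luminescence readout, signal drop = growth inhibition.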

[17] = biological target: Thioredoxin reductase 1, cytoplasmic (Rattus norvegicus) (UniProt O89049); assay: qHTS Assay for Inhibitors of Mammalian Selenoprotein Thioredoxin Reductase 1 (TrxR1) (AID 488773); conditions: Potency: inhibition; further: potency means the concentration at half of the fitted maximal effect; nearly all actives have a fitted effect of over 40% in size
Procedure, shortened: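 Inhibition is scored from the loss of NADPH fluorescence between first and last reads of an 8-min kinetic run. Selenite (400 uM) was the substrate, added after 15 min compound preincubation at room temperature.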

[18] = biological target: D(1A) dopamine receptor (Homo sapiens) (UniProt P21728); assay: HTS Assay for Allosteric Agonists of the Human D1 Dopamine Receptor: Primary Screen for Potentiators (AID 488982); further: 0% is about no effect
Procedure, shortened: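 Calcium flux in an inducible, force-coupled HEK293 Trex D1 line (overnight at 30 C): agonist mode is the 180 s kinetic read after compound; potentiator mode is the following 180 s read after dopamine at EC20.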

[19] = biological target: ATPase family AAA domain-containing protein 5 (Homo sapiens) (UniProt Q96QE3); assay: Validation screen for small molecules that inhibit ELG1-dependent DNA repair in human embryonic kidney (HEK293T) cells expressing luciferase-tagged ELG1 (AID 493107); conditions: HEK293T ELG1-luciferase level, luminescence, 5-fluorouridine co-treatment, 16 h; activity change, negative = decrease: at 46.1 µM (top of the series)
Procedure, shortened: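 ELG1-luciferase HEK293T reporter; 5-fluorouridine + compound/DMSO, 16 hr, 37 °C, 5% CO2; ONE-Glo 30 min RT; luminescence read, qHTS format.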

[20] = biological target: Glucocorticoid receptor (Homo sapiens) (UniProt P04150); assay: qHTS assay for small molecule antagonists of glucocorticoid receptor signaling (AID 588533; active means well fitted inhibition curve with a large enough effect in the signal ratio, with a control signal flat, not every such curve was filed as active; inconclusive means small, poorly fitted or top-dose-only effect, or effect the other way, or a change in a side signal; the % refers to the signal ratio); conditions: HeLa MMTV-bla, GRE beta-lactamase ratio, antagonist mode, 18 h; activity change, negative = inhibition: at 76.8 µM (top of the series)
[21] = biological target: Peroxisome proliferator-activated receptor gamma (Homo sapiens) (UniProt P37231); assay: qHTS assay for small molecule agonists of peroxisome proliferator-activated receptor gamma signaling (AID 588536; active means well fitted curve in the direction sought with a large enough effect in the signal ratio, with a control signal flat, not every such curve was filed as active; inconclusive means small, poorly fitted or top-dose-only effect, or effect the other way, or a change in a side signal; inactive means no such curve, though single readings can be large or run the other way; the % refers to the signal ratio;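 further: 0% = DMSO basal wells and 100% = rosiglitazone at 2 µM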); conditions: HEK293 PPARg-UAS-bla, beta-lactamase ratio, 16 h; activation: at 76.7 µM (top of the series), percent of rosiglitazone response, DMSO as zero
Procedure, shortened: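 Compound treatment: 16 h, 37 C, HEK293 GeneBLAzer cells. Detection: CCF4, 2 h RT. Values: Hill-fit EC50, efficacy as % of 2 uM rosiglitazone.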

[22] = biological target: Peroxisome proliferator-activated receptor gamma (Homo sapiens) (UniProt P37231); assay: qHTS assay for small molecule antagonists of peroxisome proliferator-activated receptor gamma signaling (AID 588537; active means well fitted inhibition curve with a large enough effect in the signal ratio, with a control signal flat, not every such curve was filed as active; inconclusive means small, poorly fitted or top-dose-only effect, or effect the other way, or a change in a side signal; the % refers to the signal ratio;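 further: reporter cells co-stimulated with 50 nM rosiglitazone agonist during compound treatment; % of control where 0% means no effect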); conditions: HEK293 PPARg-UAS-bla, beta-lactamase ratio, antagonist mode; activity, negative = inhibition: at 76.8 µM (top of the series)
Procedure, shortened: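 Cell-based beta-lactamase assay; GW9662 served as the antagonist control. Stimulation used rosiglitazone, final 50 nM, 16 h, 37 C.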

[23] = biological target: Vitamin D3 receptor (Homo sapiens) (UniProt P11473); assay: qHTS assay for small molecule agonists of vitamin D receptor signaling (AID 588543; calls by dose curve;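 further: 0% = DMSO basal and 100% = reference agonist control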); conditions: HEK293T VDR-UAS-bla, beta-lactamase ratio, 16 h; activation: at 76.8 µM (top of the series)
Procedure, shortened: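 GeneBLAzer VDR-UAS-bla HEK293T cells in 2% charcoal-stripped FBS medium were dosed with compound titrations for 16 h at 37 °C; CCF4 β-lactamase readout (405 nm ex, 460/530 nm em). EC50 and efficacy from Hill fits, normalized to 50 nM calcitriol (100%) and DMSO (0%).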

[24] = qHTS for Activators of Parkin Expression: LOPAC Validation Assay (FLuc Reporter) (AID 720573; further: potency means the concentration at half of the fitted maximal effect)
Procedure, shortened: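 Neuronal cell line stably carrying FLuc/NLuc coincidence reporter under Parkin promoter; cells plated 24 h, then compounds added in 7-point dose response for 24 h at 37 C. FLuc luminescence read; normalized to DMSO and positive control (100%).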

[25] = qHTS assay for small molecule agonists of the antioxidant response element (ARE) signaling pathway measured by Nrf2-dependant transcriptional activity (AID 720636; active means well fitted curve in the direction sought with a large enough effect in the repeat runs; inconclusive means weak or mixed curves; inactive means no such curve, though single readings can be large; an effect the other way counts as inactive or inconclusive; further: potency means the concentration at half of the fitted maximal effect)
Procedure, shortened: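 Attachment 6 hr at 37 C, then compound versus DMSO vehicle for 16 hr in ARE-luc HepG2 cells (1% dialyzed FBS); luminescence recorded 30 min after ONE-Glo addition at room temperature.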

[26] = system: Zika virus NS2B-NS3 protease (unlinked); assay: Optimization of GU AMC qHTS for Zika virus inhibitors: Unlinked NS2B-NS3 protease assay (AID 1347151); conditions: recombinant ZIKV NS2B-NS3 protease, fluorogenic AMC substrate; activity change, negative = inhibition: at 52.5 µM (top of the series) unless noted; further: potency means the concentration at half of the fitted maximal effect; nearly all actives have a fitted effect of over 80% in size
Procedure, shortened: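 Noncovalent complex of NS2B hydrophilic domain and NS3 protease domain, 25 nM final, in 10 mM Tris-HCl pH 8.0, 0.01% Tween 20. AMC fluorescence change over 15 min at room temperature was fitted to a 4-parameter Hill equation.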
Tags describe the fitted curve by direction and shape.

Chain of UniProt Q96QE3 (Q96QE3 whole entry, looked up, the tested form may be a part): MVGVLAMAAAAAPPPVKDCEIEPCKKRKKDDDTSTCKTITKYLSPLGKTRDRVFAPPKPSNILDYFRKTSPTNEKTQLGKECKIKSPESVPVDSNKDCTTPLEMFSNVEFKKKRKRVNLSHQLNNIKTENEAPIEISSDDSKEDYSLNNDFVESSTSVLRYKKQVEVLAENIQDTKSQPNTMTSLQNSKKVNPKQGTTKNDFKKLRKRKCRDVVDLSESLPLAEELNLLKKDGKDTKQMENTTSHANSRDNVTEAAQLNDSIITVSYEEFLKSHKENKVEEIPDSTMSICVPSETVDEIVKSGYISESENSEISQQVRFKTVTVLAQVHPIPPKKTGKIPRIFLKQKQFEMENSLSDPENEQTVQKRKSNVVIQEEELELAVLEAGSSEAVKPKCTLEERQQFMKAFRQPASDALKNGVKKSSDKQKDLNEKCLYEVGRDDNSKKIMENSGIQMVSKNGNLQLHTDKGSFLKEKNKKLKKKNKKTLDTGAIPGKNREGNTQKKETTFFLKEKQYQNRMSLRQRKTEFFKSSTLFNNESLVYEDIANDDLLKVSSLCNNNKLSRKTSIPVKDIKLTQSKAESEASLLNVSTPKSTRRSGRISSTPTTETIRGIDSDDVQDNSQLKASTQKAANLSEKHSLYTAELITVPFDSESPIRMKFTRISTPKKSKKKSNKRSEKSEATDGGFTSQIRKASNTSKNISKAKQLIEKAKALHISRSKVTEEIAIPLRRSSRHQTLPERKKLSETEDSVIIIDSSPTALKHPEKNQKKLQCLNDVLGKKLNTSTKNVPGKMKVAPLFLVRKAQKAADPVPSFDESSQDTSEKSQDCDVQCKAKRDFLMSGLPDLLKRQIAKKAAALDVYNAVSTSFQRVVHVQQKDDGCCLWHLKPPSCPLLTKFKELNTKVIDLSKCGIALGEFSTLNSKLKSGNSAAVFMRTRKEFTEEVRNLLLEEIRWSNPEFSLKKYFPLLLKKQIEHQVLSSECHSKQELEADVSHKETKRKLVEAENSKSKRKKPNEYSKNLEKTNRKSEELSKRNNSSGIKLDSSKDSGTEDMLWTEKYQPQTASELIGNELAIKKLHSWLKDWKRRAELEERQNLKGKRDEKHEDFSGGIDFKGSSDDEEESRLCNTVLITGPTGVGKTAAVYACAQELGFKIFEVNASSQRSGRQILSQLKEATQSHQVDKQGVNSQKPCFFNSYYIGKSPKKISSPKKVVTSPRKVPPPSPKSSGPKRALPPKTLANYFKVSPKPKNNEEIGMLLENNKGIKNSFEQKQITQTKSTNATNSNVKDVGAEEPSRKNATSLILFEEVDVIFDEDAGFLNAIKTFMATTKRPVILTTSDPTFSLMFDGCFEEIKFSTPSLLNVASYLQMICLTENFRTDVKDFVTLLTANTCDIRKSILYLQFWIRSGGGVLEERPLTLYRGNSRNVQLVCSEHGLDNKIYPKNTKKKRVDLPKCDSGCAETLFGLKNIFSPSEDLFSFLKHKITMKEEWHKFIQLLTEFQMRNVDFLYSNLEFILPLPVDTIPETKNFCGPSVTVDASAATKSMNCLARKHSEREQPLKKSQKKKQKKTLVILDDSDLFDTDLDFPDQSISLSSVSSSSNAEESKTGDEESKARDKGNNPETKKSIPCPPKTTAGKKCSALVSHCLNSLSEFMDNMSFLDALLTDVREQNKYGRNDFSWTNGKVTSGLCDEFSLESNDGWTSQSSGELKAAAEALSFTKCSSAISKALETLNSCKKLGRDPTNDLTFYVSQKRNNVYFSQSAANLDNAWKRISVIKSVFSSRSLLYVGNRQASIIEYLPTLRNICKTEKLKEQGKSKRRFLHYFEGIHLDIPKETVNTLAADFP
Chain of UniProt O89049 (O89049 whole entry, looked up): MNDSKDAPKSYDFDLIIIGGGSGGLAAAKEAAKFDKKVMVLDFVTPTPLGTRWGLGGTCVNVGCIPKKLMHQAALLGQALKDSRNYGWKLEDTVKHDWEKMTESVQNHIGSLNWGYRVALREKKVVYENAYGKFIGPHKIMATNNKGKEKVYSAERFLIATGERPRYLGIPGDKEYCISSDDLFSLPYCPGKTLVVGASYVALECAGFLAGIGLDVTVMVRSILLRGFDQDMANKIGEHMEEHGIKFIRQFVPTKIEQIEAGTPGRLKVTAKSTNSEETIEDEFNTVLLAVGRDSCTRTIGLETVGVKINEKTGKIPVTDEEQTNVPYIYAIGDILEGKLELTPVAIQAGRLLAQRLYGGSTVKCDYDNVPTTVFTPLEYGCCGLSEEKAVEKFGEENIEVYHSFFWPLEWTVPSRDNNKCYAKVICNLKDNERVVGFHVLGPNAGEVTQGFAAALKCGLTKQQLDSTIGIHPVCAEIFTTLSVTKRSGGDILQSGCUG
Chain of UniProt P21728 (P21728 whole entry, looked up): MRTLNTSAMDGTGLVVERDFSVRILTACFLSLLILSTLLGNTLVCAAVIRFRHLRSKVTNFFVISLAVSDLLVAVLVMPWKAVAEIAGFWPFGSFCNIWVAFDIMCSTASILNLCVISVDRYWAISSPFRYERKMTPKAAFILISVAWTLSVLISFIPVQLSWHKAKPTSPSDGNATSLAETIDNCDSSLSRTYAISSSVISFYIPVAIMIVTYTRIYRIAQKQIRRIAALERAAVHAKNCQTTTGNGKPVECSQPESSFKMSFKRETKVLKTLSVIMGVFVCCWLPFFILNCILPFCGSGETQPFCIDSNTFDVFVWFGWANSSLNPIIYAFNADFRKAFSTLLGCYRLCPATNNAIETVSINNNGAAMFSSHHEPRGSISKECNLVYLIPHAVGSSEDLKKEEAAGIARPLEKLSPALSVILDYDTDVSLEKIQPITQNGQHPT
Chain of UniProt P02791 (P02791 whole entry, looked up): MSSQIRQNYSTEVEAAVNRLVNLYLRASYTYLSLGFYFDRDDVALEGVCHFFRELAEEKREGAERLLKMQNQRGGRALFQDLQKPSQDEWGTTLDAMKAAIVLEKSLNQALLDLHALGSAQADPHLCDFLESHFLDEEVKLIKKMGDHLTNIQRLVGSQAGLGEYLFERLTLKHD
Chain of UniProt O15648 (O15648 whole entry, looked up): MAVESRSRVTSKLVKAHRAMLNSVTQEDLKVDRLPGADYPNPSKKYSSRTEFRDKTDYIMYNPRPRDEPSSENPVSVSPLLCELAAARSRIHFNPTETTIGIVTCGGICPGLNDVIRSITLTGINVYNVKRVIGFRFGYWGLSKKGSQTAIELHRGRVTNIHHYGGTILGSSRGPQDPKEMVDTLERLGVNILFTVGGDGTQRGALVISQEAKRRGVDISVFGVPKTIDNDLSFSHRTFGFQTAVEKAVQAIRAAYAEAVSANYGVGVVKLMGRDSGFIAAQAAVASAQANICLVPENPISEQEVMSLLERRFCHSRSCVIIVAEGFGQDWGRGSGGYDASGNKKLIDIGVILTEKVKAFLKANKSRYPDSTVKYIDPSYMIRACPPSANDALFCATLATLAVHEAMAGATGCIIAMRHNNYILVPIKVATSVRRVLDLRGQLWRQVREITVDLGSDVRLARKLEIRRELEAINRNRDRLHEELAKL
Chain of UniProt P54132 (P54132 whole entry, looked up): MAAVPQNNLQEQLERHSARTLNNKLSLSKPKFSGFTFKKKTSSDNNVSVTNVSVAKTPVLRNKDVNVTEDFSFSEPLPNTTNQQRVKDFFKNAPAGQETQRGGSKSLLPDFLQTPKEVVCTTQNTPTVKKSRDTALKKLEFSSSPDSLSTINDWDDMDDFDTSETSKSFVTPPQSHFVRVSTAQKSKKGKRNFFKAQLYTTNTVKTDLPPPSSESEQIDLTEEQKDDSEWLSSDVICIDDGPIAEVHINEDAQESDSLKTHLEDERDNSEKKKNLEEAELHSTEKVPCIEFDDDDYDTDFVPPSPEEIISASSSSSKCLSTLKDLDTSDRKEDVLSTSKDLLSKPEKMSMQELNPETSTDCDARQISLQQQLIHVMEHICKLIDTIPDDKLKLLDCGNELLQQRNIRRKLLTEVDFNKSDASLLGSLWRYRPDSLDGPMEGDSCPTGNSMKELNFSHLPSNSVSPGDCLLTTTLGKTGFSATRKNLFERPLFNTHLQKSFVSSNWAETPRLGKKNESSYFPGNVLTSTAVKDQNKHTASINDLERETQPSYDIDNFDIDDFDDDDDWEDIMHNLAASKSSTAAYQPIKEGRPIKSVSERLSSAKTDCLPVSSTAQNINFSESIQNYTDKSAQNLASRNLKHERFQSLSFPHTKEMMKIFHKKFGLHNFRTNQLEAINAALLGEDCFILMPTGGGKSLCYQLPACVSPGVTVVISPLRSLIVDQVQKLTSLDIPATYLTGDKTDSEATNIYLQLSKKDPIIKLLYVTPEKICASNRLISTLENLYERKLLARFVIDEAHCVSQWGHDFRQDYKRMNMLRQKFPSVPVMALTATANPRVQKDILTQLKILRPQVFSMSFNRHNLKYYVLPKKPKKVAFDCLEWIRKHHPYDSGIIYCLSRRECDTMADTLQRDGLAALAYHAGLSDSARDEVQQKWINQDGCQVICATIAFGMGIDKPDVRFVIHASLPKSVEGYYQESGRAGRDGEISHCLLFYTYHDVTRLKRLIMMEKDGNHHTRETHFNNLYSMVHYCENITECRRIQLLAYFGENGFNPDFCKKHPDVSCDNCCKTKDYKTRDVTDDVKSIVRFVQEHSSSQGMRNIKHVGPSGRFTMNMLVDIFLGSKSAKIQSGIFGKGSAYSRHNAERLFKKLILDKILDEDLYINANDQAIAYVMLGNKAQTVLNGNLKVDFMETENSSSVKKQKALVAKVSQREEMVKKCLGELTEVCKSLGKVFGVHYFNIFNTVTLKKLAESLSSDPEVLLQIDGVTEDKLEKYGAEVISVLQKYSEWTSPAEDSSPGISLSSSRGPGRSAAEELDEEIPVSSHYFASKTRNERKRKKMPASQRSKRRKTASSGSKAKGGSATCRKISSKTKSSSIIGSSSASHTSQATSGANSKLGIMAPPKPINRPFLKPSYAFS

CCC1Cc2cc(O)ccc2C2=C1c1ccc(O)cc1CC2CC (centres undefined)
active: Potency [1] 3.77 µM

CC[C@@H](C(=O)[C@H](C)[C@@H](O)[C@H](C)CCc1ccc(C)c(O)c1C(=O)O)C1O[C@@](CC)(C2CC[C@](O)(CC)[C@H](C)O2)C[C@@H]1C (some centres undefined)
inconclusive: Potency [2] 19.2 µM [inhibitor, partial curve] | Potency [3] 7.64 µM [inhibitor, full curve, poor fit] | Potency [1] 26.7 µM [inhibitor, partial curve, poor fit] | Potency [4] 29.3 µM [cytotoxic, single point] | Potency [5] 32.9 µM [cytotoxic, partial curve, poor fit] | Potency [6] 3.69 µM [inhibitor, full curve]

CC(C)[C@@H]1NC(=O)[C@H](Cc2ccccc2)NC(=O)[C@@H](CC(=O)O)NC(=O)CNC(=O)[C@H](CCCNC(=N)N)NC1=O
inactive: Potency [1]

N#Cc1ccc(OCC2CN(Cc3c[nH]c4ccccc34)C(=O)c3c(ccnc3-c3ccc(OCC(=O)O)cc3)O2)cc1 (centres undefined)
inconclusive: Potency [3] 62.2 µM [inhibitor, partial curve, poor fit] | Potency [8] 50.1 µM [inhibitor, partial curve, poor fit]
inactive: Potency [7]

CC1=C(/C=C/C(C)=C/C=C/C(C)=C\C(=O)O)C(C)(C)CCC1
active: Potency [10] 12.6 µM
inactive: Potency [9] | Potency [14] | Potency [18] | Potency [22]
inconclusive: Potency [11] 11.2 µM [inhibitor, partial curve] | Potency [12] 39.8 µM [inhibitor, partial curve] | Potency [13] 56.2 µM [inhibitor, partial curve, poor fit] | Potency [15] 18.5 µM [inhibitor, single point] | Potency [16] 14.7 µM [inhibitor, single point] | Potency [17] 18.9 µM [inhibitor, single point] | Potency [19] 32.6 µM [activator, partial curve, poor fit] | Potency [20] 2 µM [inhibitor, full curve, poor fit] | activation [21] 51.4% | activation [23] 8.52% | Potency [24] 20.6 µM [activator, single point] | Potency [25] 61.1 µM [activator, partial curve, poor fit] | Potency [26] 16.8 µM [inhibitor, single point]
